# In PubChem BioAssay AID602332 (National Center for Advancing Translational Sciences (NCATS), 2012):
# About 75 (0.02%) of roughly 420,000 compounds were called active. The shares of active, inactive and inconclusive entries below differ from those in the screen. Calls come from the whole dose curve; as a rule, active = well fitted activation curve with a large enough effect; inconclusive = small, poorly fitted or top-dose-only effect; inactive = no such curve, though single readings can be large or run the other way. Where the call is inconclusive, the potency comes from a doubtful curve fit.
# Assay: qHTS for Inducers of the Endoplasmic Reticulum Stress Response (ERSR) in Human Glioma: qHTS; note: nearly all actives have a fitted effect of over 35% in size; for activation: % of control where 0% means no effect
# Conditions: U87-MG GRP78 promoter luciferase reporter, 16 h; activation: stronger effect = higher value
# In short: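 Stably transfected U87-MG human glioma cells carrying a GRP78-based luminescent sensor were seeded at 1000 cells/well, pin-dosed with compounds and incubated 16 h. Luciferase reagent was then added, and end-point luminescence was read after 10 min at room temperature.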
# Potency is the fitted concentration of half-maximal effect; tags give direction and shape of the fitted curve.
SMILES,Potency,activation
CCCOc1ccc(CC(=O)NNC(=S)Nc2ccccc2)cc1Br,"inconclusive: 25.1 µM [activator, single point]",–
Cc1ccc(Nc2nc(-c3ccc(O)cc3O)cs2)nc1,"inconclusive: 10 µM [activator, partial curve, poor fit]",–
O=C(Nc1cccc(Cl)c1)OCCOC(=O)Nc1cccc(Cl)c1,–,inactive: -3.05%
CCc1cc(C(=O)O)c(NC(=O)c2cc(OC)c(OC)c(OC)c2)s1,"inconclusive: 44.7 µM [activator, partial curve, poor fit]",–
CCOc1cc2c(cc1OCC)C(CC(=O)O)N(C(=O)Nc1ccc(Br)c(C)c1)CC2 (centres undefined),–,inactive: 1.25%
Cc1cc(O)ccc1-c1cc(C(=O)NCc2ccc(F)cc2)[nH]n1,"inconclusive: 50.1 µM [activator, single point]",–
CC(C)(C)NC(=S)NC(=O)C12CCC3CC(CC(C3)C1)C2,–,inactive: -3.04%
Cc1ccnc(Nc2nc(-c3ccc(O)c(O)c3)cs2)c1,"inconclusive: 2.24 µM [activator, partial curve, poor fit]",–
CC(C)C[C@H](NC(=O)c1nc[nH]c1C(=O)N1CCN(C(=O)OC(C)(C)C)CC1)C(=O)OCc1ccccc1,"inconclusive: 28.2 µM [activator, single point]",–
Cc1nc(C)c(C(=O)Nc2cccc(C)c2C)s1,"inconclusive: 28.2 µM [activator, single point]",–
O=C(c1cc2cc(F)ccc2[nH]1)N1CCc2ccccc21,"inconclusive: 2 µM [activator, full curve, poor fit]",–
COC(=O)c1cccc(Nc2ncnc3sccc23)c1,–,inactive: 0.217%
Cc1cccnc1Nc1nc(-c2ccc(O)c(O)c2)cs1,"inconclusive: 2.24 µM [activator, full curve, poor fit]",–
COc1cc(O)c(C=NN2C(=O)CSC2=S)c(OC)c1,–,inactive: 0.764%
CCOc1ccccc1C1NC(c2ccc3c(c2)OCO3)=CC(c2ccccc2O)N1 (centres undefined),"inconclusive: 50.1 µM [activator, single point]",–
CCc1cc(/C(Cc2csc(C)n2)=N/O)c(O)cc1O,–,inactive: 0.856%
O=c1cc(CCl)[nH]c2nc3ccccc3n12,"inconclusive: 50.1 µM [activator, partial curve, poor fit]",–
Cc1ccc(C(C)C)c2c1C(c1ccc3c(c1)OCO3)CC(=O)O2 (centres undefined),"inconclusive: 44.7 µM [activator, partial curve, poor fit]",–
O=C1CCCc2c1[nH]c1ccc(CN3CCCCC3)cc21,–,inactive: -3.26%
CCc1ccc2c(c1)C1(NN=C(c3ccc(C)cc3)S1)C(=O)N2 (centres undefined),"inconclusive: 22.4 µM [activator, single point]",–
O=C(Nc1ccc2c(c1)OCCO2)c1ccc(NC(=O)C2CCCO2)cc1 (centres undefined),–,inactive: -11.3%
CCOC(=O)COc1ccc2c(=O)c(-c3ccccc3OC)coc2c1,"inconclusive: 50.1 µM [activator, partial curve, poor fit]",–

SMILES,Potency,activation
Cc1ccc(Nc2nc(N)c3ccccc3n2)cc1Cl,"inconclusive: 10 µM [activator, partial curve, poor fit]",–
O=[N+]([O-])c1c(NCCO)cc(N2CCC3(CC2)OCCO3)c2nonc12,–,inactive: -3.32%
CC(C)c1cnc2c(c1SCC(=O)N1CCCCC1)c(=O)n(C)c(=O)n2C,–,inactive: -5.38%
CCC(=O)N1CCN(c2ccc(Cl)cc2NC(=O)c2ccc([N+](=O)[O-])o2)CC1,"inconclusive: 2 µM [activator, full curve, poor fit]",–
O=C(NCCCN1CCOCC1)c1cc(-c2cccs2)on1,"inconclusive: 12.6 µM [activator, single point]",–
COc1ccc(S(=O)(=O)Oc2ccc(C(=S)N3CCOCC3)cc2OC)cc1,–,inactive: -2.3%
CCOC(=O)C1=C(C)NC2=C(C(=O)CCC2)C1c1ccc(N(C)C)cc1 (centres undefined),–,inactive: -1.47%
O=C(O)C1C2C=CC3(CN(CC(O)COc4ccccc4)C(=O)C13)O2 (centres undefined),"inconclusive: 50.1 µM [activator, single point]",–
COc1ccc(OCc2nnc(SCC(=O)N3CCCc4ccccc43)n2-c2ccc(C)cc2)cc1,–,inactive: 3.13%
Cc1ccc(NC(=O)/C(C#N)=C/c2ccsc2)c(C)c1,–,inactive: -0.183%
COc1ccc(-c2cc(=O)c3ccc(O)cc3o2)cc1,"inconclusive: 3.98 µM [activator, partial curve, poor fit]",–
Cc1cc(C)cc(NC(=S)N(Cc2ccc(Cl)cc2)Cc2ccc(C(=O)O)cc2)c1,"inconclusive: 35.5 µM [activator, partial curve, poor fit]",–
Cc1nc(N)sc1N=Nc1ccc(F)cc1,"inconclusive: 10 µM [activator, partial curve, poor fit]",–
Oc1ccc(N=Nc2ccc3c(c2)OCCO3)c2cccnc12,–,inactive: -11.4%
C=Cc1ccc(Cn2nc(-c3ccc(C)cc3)ccc2=O)cc1,"inconclusive: 50.1 µM [activator, single point]",–
Cc1cccc(C(=O)Nc2scc(CC(C)C)c2C(=O)O)c1,–,inactive: 14.6%
CC(=O)/C(=C/c1ccccc1)C(=O)Nc1ccccc1C,"inconclusive: 22.4 µM [activator, single point]",–
CCOc1cc(/C=C2\C(=O)N(Cc3ccc(C)cc3)C(C)=C2C(=O)OC)ccc1O,"inconclusive: 63.1 µM [activator, single point]",–
CCOc1cc(/C=C2\C(=O)N(Cc3ccco3)C(C)=C2C(=O)OC)ccc1O,"inconclusive: 50.1 µM [activator, single point]",–
CCOCCCNC(=O)c1cccs1,–,inactive: -3.15%
Cc1ccc2c(c1)N(CCC(=O)NCCCN1CCCC1)C(=O)CO2,"inconclusive: 14.1 µM [activator, single point]",–
COc1cc(C(=O)Oc2ccc3c(c2)OCC3=O)cc(OC)c1OC,"inconclusive: 44.7 µM [activator, partial curve, poor fit]",–
